# Reference: the supplement of paper PMC12217912
# The list shows a part of the results. Sequences were assembled here from the parent chain. Values near 0.05 are background.
# B1: TEV protease; numbered along this chain (parent)
# chain: MGESLFKGPRDYNPISSSICHLTNESDGHTTSLYGIGFGPFIITNKHLFRRNNGTLVVQSLHGVFKVKDTTTLQQHLVDGRDMIIIRMPKDFPPFPQKLKFREPQREERICLVTTNFQTKSMSSMVSDTSCTFPSGDGIFWKHWIQTKDGQCGSPLVSTRDGFIVGIHSASNFTNTNNYFTSVPKNFMELLTNQEAQQWVSGWRLNADSVLWGGHKVFMVKPEEPFQPVKEATQL
# Variants of: B1
# Assay: raw area under fraction-flipped curve 0-4 h after induction (AUC4h, not background-subtracted), DNA-recorder readout of cleavage of the substrate (dimensionless); higher = more cleavage of the substrate by the protease variant
# Conditions: temperature: 34 °C; time window: 0-4 h after rhamnose induction
# Description: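 In vivo DNA recorder in E. coli TOP10(DE3) ΔrhaA at 34 °C. Each TEVp single-site mutant (parent TEVp 0) is paired with a single-site variant of the 7-mer TEVs (canonical ENLYFQ|S). The substrate sits between flexible linkers in a Bxb1-sfGFP-TEVs-SsrA fusion, so cleavage stabilises Bxb1 and speeds flipping of a recombination array, read by NGS. The value is the raw area under the fraction-flipped curve over 0-4 h after rhamnose induction (AUC4h), with ≥20 reads per time point. It is not background-subtracted; inactive controls average about 0.047.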
# 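Note: Bxb1 expression induced with 0.2% (w/v) L-rhamnose at OD600 near 0.5, cultures sampled hourly, flipped fraction per protease–substrate barcode pair counted by paired-end Illumina sequencing.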
variant,measurement,value
MGESLFKGPRDYNPISSSICHLTNESDGHTTSLYGIGFGPFIITNKHLFRRNNGTLVVQSLHGVFKVKDTTTLQQHLVDGRDMIIIRMGKDFPPFPQKLKFREPQREERICLVTTNFQTKSMSSMVSDTSCTFPSGDGIFWKHWIQTKDGQCGSPLVSTRDGFIVGIHSASNFTNTNNYFTSVPKNFMELLTNQEAQQWVSGWRLNADSVLWGGHKVFMVKPEEPFQPVKEATQL [P89G],area with substrate ENLYFAS,0.0566
same,area with substrate ENLYFFS,0.0649
same,area with substrate ENLYFIS,0.0668
same,area with substrate ENLYFPS,0.0623
same,area with substrate ENLYFSS,0.0567
MGESLFKGPRDYNPISSSICHLTNESDGHTTSLYGIGFGPFIITNKHLFRRNNGTLVVQSLHGVFKVKDTTTLQQHLVDGRDMIIIRMDKDFPPFPQKLKFREPQREERICLVTTNFQTKSMSSMVSDTSCTFPSGDGIFWKHWIQTKDGQCGSPLVSTRDGFIVGIHSASNFTNTNNYFTSVPKNFMELLTNQEAQQWVSGWRLNADSVLWGGHKVFMVKPEEPFQPVKEATQL [P89D],area with substrate ENLYFAS,0.0474
same,area with substrate ENLYFHS,0.0051
same,area with substrate ENLYFKS,0.0421
same,area with substrate ENLYFPS,0.0509
same,area with substrate ENLYFTS,0.0613
MGESLFKGPRDYNPISSSICHLTNESDGHTTSLYGIGFGPFIITNKHLFRRNNGTLVVQSLHGVFKVKDTTTLQQHLVDGRDMIIIRMIKDFPPFPQKLKFREPQREERICLVTTNFQTKSMSSMVSDTSCTFPSGDGIFWKHWIQTKDGQCGSPLVSTRDGFIVGIHSASNFTNTNNYFTSVPKNFMELLTNQEAQQWVSGWRLNADSVLWGGHKVFMVKPEEPFQPVKEATQL [P89I],area with substrate ENLYFAS,0.0528
same,area with substrate ENLYFES,0.0489
same,area with substrate ENLYFFS,0.0742
same,area with substrate ENLYFIS,0.0466
same,area with substrate ENLYFKS,0.0468
same,area with substrate ENLYFMS,0.0404
same,area with substrate ENLYFNS,0.0518
same,area with substrate ENLYFRS,0.0526
same,area with substrate ENLYFSS,0.0495
same,area with substrate ENLYFTS,0.0463
same,area with substrate ENLYFVS,0.048
MGESLFKGPRDYNPISSSICHLTNESDGHTTSLYGIGFGPFIITNKHLFRRNNGTLVVQSLHGVFKVKDTTTLQQHLVDGRTMIIIRMPKDFPPFPQKLKFREPQREERICLVTTNFQTKSMSSMVSDTSCTFPSGDGIFWKHWIQTKDGQCGSPLVSTRDGFIVGIHSASNFTNTNNYFTSVPKNFMELLTNQEAQQWVSGWRLNADSVLWGGHKVFMVKPEEPFQPVKEATQL [D82T],area with substrate ENLYFAS,0.0495
same,area with substrate ENLYFCS,0.0302
same,area with substrate ENLYFES,0.0629
same,area with substrate ENLYFFS,0.0669
same,area with substrate ENLYFGS,0.0461
same,area with substrate ENLYFHS,0.0621
same,area with substrate ENLYFIS,0.0509
same,area with substrate ENLYFKS,0.024
same,area with substrate ENLYFLS,0.0426
same,area with substrate ENLYFMS,0.0542
same,area with substrate ENLYFNS,0.0509
same,area with substrate ENLYFPS,0.0626
same,area with substrate ENLYFSS,0.0658
same,area with substrate ENLYFTS,0.049
same,area with substrate ENLYFWS,0.04
same,area with substrate ENLYFYS,0.0497
MGESLFKGPRDYNPISSSICHLTNESDGHTTSLYGIGFGPFIITNKHLFRRNNGTLVVQSLHGVFKVKDTTTLQQHLVDGRCMIIIRMPKDFPPFPQKLKFREPQREERICLVTTNFQTKSMSSMVSDTSCTFPSGDGIFWKHWIQTKDGQCGSPLVSTRDGFIVGIHSASNFTNTNNYFTSVPKNFMELLTNQEAQQWVSGWRLNADSVLWGGHKVFMVKPEEPFQPVKEATQL [D82C],area with substrate ENLYFAS,0.0472
same,area with substrate ENLYFCS,0.0166
same,area with substrate ENLYFFS,0.0821
same,area with substrate ENLYFGS,0.0608
same,area with substrate ENLYFIS,0.0576
same,area with substrate ENLYFMS,0.0613
same,area with substrate ENLYFNS,0.054
same,area with substrate ENLYFPS,0.0581
same,area with substrate ENLYFTS,0.0665
same,area with substrate ENLYFWS,0.0554
same,area with substrate ENLYFYS,0.0524
MGESLFKGPRDYNPISSSICHLTNESDGHTTSLYGIGFGPFIITNKHLFRRNNGTLVVQSLHGVFKVKDTTTLQQHLVDGRSMIIIRMPKDFPPFPQKLKFREPQREERICLVTTNFQTKSMSSMVSDTSCTFPSGDGIFWKHWIQTKDGQCGSPLVSTRDGFIVGIHSASNFTNTNNYFTSVPKNFMELLTNQEAQQWVSGWRLNADSVLWGGHKVFMVKPEEPFQPVKEATQL [D82S],area with substrate ENLYFAS,0.0613
same,area with substrate ENLYFFS,0.0597
same,area with substrate ENLYFGS,0.0571
same,area with substrate ENLYFIS,0.0541
same,area with substrate ENLYFMS,0.0556
same,area with substrate ENLYFRS,0.0507
same,area with substrate ENLYFWS,0.053
MGESLFKGPRDYNPISSSICHLTNESDGHTTSLYGIGFGPFIITNKHLFRRNNGTLVVQSLHGVFKVKDTTTLQQHLVDGRDMIIIRMPDDFPPFPQKLKFREPQREERICLVTTNFQTKSMSSMVSDTSCTFPSGDGIFWKHWIQTKDGQCGSPLVSTRDGFIVGIHSASNFTNTNNYFTSVPKNFMELLTNQEAQQWVSGWRLNADSVLWGGHKVFMVKPEEPFQPVKEATQL [K90D],area with substrate ENLYFAS,0.0687
same,area with substrate ENLYFDS,0.0639
same,area with substrate ENLYFFS,0.0829
same,area with substrate ENLYFHS,0.06
same,area with substrate ENLYFIS,0.0544
same,area with substrate ENLYFPS,0.0671
MGESLFKGPRDYNPISSSICHLTNESDGHTTSLYGIGFGPFIITNKHLFRRNNGTLVVQSLHGVFKVKDTTTLQQHLVDGRDMIIIRMPKDQPPFPQKLKFREPQREERICLVTTNFQTKSMSSMVSDTSCTFPSGDGIFWKHWIQTKDGQCGSPLVSTRDGFIVGIHSASNFTNTNNYFTSVPKNFMELLTNQEAQQWVSGWRLNADSVLWGGHKVFMVKPEEPFQPVKEATQL [F92Q],area with substrate ENLYFAS,0.0641
same,area with substrate ENLYFDS,0.0481
same,area with substrate ENLYFES,0.0608
same,area with substrate ENLYFFS,0.0442
same,area with substrate ENLYFGS,0.0523
same,area with substrate ENLYFHS,0.0556
same,area with substrate ENLYFIS,0.0504
same,area with substrate ENLYFKS,0.0587
same,area with substrate ENLYFMS,0.0685
same,area with substrate ENLYFNS,0.0753
same,area with substrate ENLYFPS,0.0754
same,area with substrate ENLYFRS,0.0595
same,area with substrate ENLYFSS,0.0749
same,area with substrate ENLYFTS,0.0285
same,area with substrate ENLYFWS,0.0599
MGESLFKGPRDYNPISSSICHLTNESDGHTTSLYGIGFGPFIITNKHLFRRNNGTLVVQSLHGVFKVKDTTTLQQHLVDGRDMIIIRMPKYFPPFPQKLKFREPQREERICLVTTNFQTKSMSSMVSDTSCTFPSGDGIFWKHWIQTKDGQCGSPLVSTRDGFIVGIHSASNFTNTNNYFTSVPKNFMELLTNQEAQQWVSGWRLNADSVLWGGHKVFMVKPEEPFQPVKEATQL [D91Y],area with substrate ENLYFAS,0.0504
same,area with substrate ENLYFCS,0.0623
same,area with substrate ENLYFFS,0.0571
same,area with substrate ENLYFHS,0.0637
same,area with substrate ENLYFIS,0.0733
same,area with substrate ENLYFKS,0.0445
same,area with substrate ENLYFLS,0.0606
MGESLFKGPRDYNPISSSICHLTNESDGHTTSLYGIGFGPFIITNKHLFRRNNGTLVVQSLHGVFKVKDTTTLQQHLVDGRDMIIIRMPKGFPPFPQKLKFREPQREERICLVTTNFQTKSMSSMVSDTSCTFPSGDGIFWKHWIQTKDGQCGSPLVSTRDGFIVGIHSASNFTNTNNYFTSVPKNFMELLTNQEAQQWVSGWRLNADSVLWGGHKVFMVKPEEPFQPVKEATQL [D91G],area with substrate ENLYFAS,0.0626
same,area with substrate ENLYFES,0.0768
same,area with substrate ENLYFFS,0.0734
same,area with substrate ENLYFIS,0.0436
same,area with substrate ENLYFKS,0.0608
same,area with substrate ENLYFMS,0.0782
same,area with substrate ENLYFNS,0.0533
same,area with substrate ENLYFPS,0.0134
same,area with substrate ENLYFRS,0.0617
same,area with substrate ENLYFSS,0.0619
same,area with substrate ENLYFTS,0.0414
same,area with substrate ENLYFWS,0.0653
MGESLFKGPRDYNPISSSICHLTNESDGHTTSLYGIGFGPFIITNKHLFRRNNGTLVVQSLHGVFKVKDTTTLQQHLVDGQDMIIIRMPKDFPPFPQKLKFREPQREERICLVTTNFQTKSMSSMVSDTSCTFPSGDGIFWKHWIQTKDGQCGSPLVSTRDGFIVGIHSASNFTNTNNYFTSVPKNFMELLTNQEAQQWVSGWRLNADSVLWGGHKVFMVKPEEPFQPVKEATQL [R81Q],area with substrate ENLYFAS,0.056
same,area with substrate ENLYFES,0.056
same,area with substrate ENLYFNS,0.0494
same,area with substrate ENLYFPS,0.0623
same,area with substrate ENLYFRS,0.0544
same,area with substrate ENLYFTS,0.051
